Assay results reported in patent publication US20140050743A1, “BINDING PROTEINS TO INHIBITORS OF COAGULATION FACTORS” (BAYER INTELLECTUAL PROPERTY GMBH, priority 2011, published 2014).
Where “and” joins values, the source holds several entries; their conditions need not be identical. Equal entries are not always repeated. Entries after “also recorded” stand apart in the source; their conditions may differ. Where two headings read alike, the source gives them in different places.

What was measured:
[1] = KD from unbound rivaroxaban after ultrafiltration (Rosenthal-Scatchard plot) in Dulbeccos PBS; type: binding; details: read-out: KD value towards rivaroxaban from the slope of the Rosenthal-Scatchard plot, 0.5 μM Fab, rivaroxaban 0.214 to 0.583 μM, DPBS
[2] = Affinity by surface plasmon resonance (Biacore), analyte edoxaban; type: binding; details: Table 7; immobilized Fabs, SPR (Biacore)
[3] = Affinity by surface plasmon resonance (Biacore), immobilized Fab, analyte rivaroxaban; type: binding; details: immobilized Fabs, SPR (Biacore)
Excerpt: “Binding affinity” refers to the strength of the sum total of noncovalent interactions between a single binding site of a molecule and its binding partner. Unless indicated otherwise, as used herein, “binding affinity” refers to intrinsic binding affinity which reflects a 1:1 interaction between members of a binding pair (e.g. an antibody and an antigen). The dissociation constant “KD” is commonly used to describe the affinity between a molecule (such as an antibody) and its binding partner (such as an antigen) i.e. how tightly a ligand binds to a particular protein. Ligand-protein affinities are influenced by non-covalent intermolecular interactions between the two molecules Affinity can be measured by common methods known in the art, including those described herein. In one embodiment, the “KD” or “KD value” according to this invention is measured by using surface plasmon resonance assays using a Biacore T100 instrument (GE Healthcare Biacore, Inc.) according to Example 5. The dissociation equilibrium constant (KD) was calculated based on the ratio of association (kon) and dissociation rated (koff) constants, obtained by fitting sensograms with a first order 1:1 binding model using Biacore Evaluation Software. Other suitable devices are BIACORE(R)-2000, a BIACORE (R)-3000 (BIAcore, Inc., Piscataway, N.J.), or ProteOn XPR36 instrument (Bio-Rad Laboratories, Inc.).
Binding affinities of Fab-fragments were determined by surface plasmon resonance analysis on a Biacore T100 instrument (GE Healthcare Biacore, Inc.). Fab fragments were diluted to a final concentration of 10 μg/ml in 10 mM sodium acetate, pH 4.5, and immobilized on a CM5 chip (GE Healthcare Biacore, Inc.) at levels of 3000-5000RU by amine-coupling chemistry for flow cells 2, 3 and 4, respectively. Flow cell 1 was used as a reference. […] Sensograms were generated after in-line reference cell correction followed by buffer sample subtraction. The dissociation equilibrium constant (KD) was calculated based on the ratio of association and dissociation rated constants, obtained by fitting sensograms with a first order 1:1 binding model using BiaEvaluation Software.

[4] = test system: bleedings prolonged by rivaroxaban; type: in vivo, rat
thrombin generation = experiment: Thrombin generation assay in human platelet poor plasma in the absence of any FXa inhibitor; type: biochemical; details: no FXa inhibitor; Fab 0, 0.09, 0.72 μM
apixaban = experiment: Thrombin generation assay in human platelet poor plasma in the presence of apixaban; type: biochemical; details: 3 μM apixaban, Fab 1.43 μM, alone or with 0.1 μM rivaroxaban
[5] = Affinity by surface plasmon resonance (Biacore), analyte apixaban; type: binding; details: Table 7; immobilized Fabs, SPR (Biacore)
[6] = Affinity determination by Isothermal Titration Calorimetry (ITC); type: binding; details: read-out: KD for rivaroxaban estimated from the titration curve (ITC); 25° C., PBS pH 7.4
[7] = test system: rivaroxaban (prothrombin time); experiment: Reversal of rivaroxaban's effect on prothrombin time (PT) in vitro, rat plasma; type: biochemical
Procedure: (§1) Citrated blood (0.11 M Na-citrate/blood, 1:9 v/v) was obtained from human donors by venipuncture or from anesthetized Wistar rats (Charles River) by aortic cannulation and centrifuged at 4000 g for 15 minutes for separation of platelet-poor plasma. […] Antidote was added to the Plasma-rivaroxaban mixture and incubated for another 10 minutes at room temperature. The PT assay was run using Recombiplastin (Instrumentation Laboratory) as tissue factor source on an AMAX 200 automated coagulometer (Trinity Biotech) according to manufacturer's instructions. The composition of the final assay volume is ⅓ plasma and ⅔ PT reagent. […] Data are given as means±sem from 5 experiments and represent final assay concentrations (Table 8 and FIGS. 7 and 8).

[8] = Affinity by surface plasmon resonance (Biacore), analyte razaxaban; type: binding; details: Table 7; immobilized Fabs, SPR (Biacore)
[9] = test system: rivaroxaban (prothrombin time); experiment: Prothrombin time (PT) ex vivo (rat PD/PK); type: in vivo; details: rivaroxaban […] oral; Fab 85 mg/kg infusion from 1.5 to 2.5 h
[10] = test system: rivaroxaban (prothrombin time); experiment: Reversal of rivaroxaban's effect on prothrombin time (PT) in vitro, human plasma; type: biochemical
Procedure: as §1

[11] = Affinity by surface plasmon resonance (Biacore), analyte SATI; type: binding; details: Table 7; immobilized Fabs, SPR (Biacore)
[12] = test system: rivaroxaban (FXa activity in plasma); experiment: Reversal of rivaroxaban's effect in a FXa activity assay in plasma; type: biochemical, human; details: 0.05 μM rivaroxaban; Fab 0-1000 nM
dabigatran = experiment: Thrombin generation assay in human platelet poor plasma in the presence of dabigatran; type: biochemical; details: Fab 0.72 μM, alone or with 0.1 μM rivaroxaban
SATI = experiment: Thrombin generation assay in human platelet poor plasma, reversal of SATI; type: biochemical; details: 0.1 μM SATI; Fab 0, 0.09, 0.72 μM
[13] = test system: rivaroxaban induced FXa inhibition; experiment: Functional neutralization of rivaroxaban in a biochemical Factor Xa activity assay
Procedure: Serial dilutions of test compounds in assay buffer (50 mM HEPES pH 7.8, 250 mM NaCl, 6 mM CaCl2, 0.01% Brij35, 1 mM glutathione, 4 mM EDTA, 0.05% bovine serum albumin) were performed (typical concentrations ranging from 5 μM to 0.0007 μM).
20 μL of the diluted test compounds were placed in 384 well microtiter plates (Greiner, Frickenhausen, Germany), followed by the addition of 10 μL of a 1:400 dilution (250 μM) of the FXa substrate Pefafluor Xa (100 mM in DMSO, Loxo, Dossenheim, Germany) in assay buffer. […] Simultaneously, control reactions without rivaroxaban were started.
During incubation at 32° C., reaction progress curves were monitored using a fluorescence microtiter plate reader (e.g Tecan Ultra Evolution, Tecan Group Ltd., Mannedorf, Switzerland; excitation 360 nm, emission 465 nm).
The dilution of FXa was chosen that in the control reactions the reaction kinetics was linear, and less than 50% of the substrate was consumed (typical final FXa concentration in the assay: 0.05 nM). […] Results are depicted in FIG. 1.

rivaroxaban = experiment: Thrombin generation assay in human platelet poor plasma, reversal of rivaroxaban; type: biochemical; details: 0.1 μM rivaroxaban; Fab 0, 0.09, 0.72 μM

Kd [1]: ~0.5 nM and ~0.48 nM | KD Edoxaban [2]: n.b. | Kd ([3]; Table 6, analyte rivaroxaban, read-out: KD): < 10 nM | Kd ([3]; read-out: KD Rivaroxaban, Table 7): < 10 nM | KD Apixaban [5]: n.b. | Kd [6]: < 1 nM | KD Razaxaban [8]: n.b. | Kd [11]: < 10 nM | EC50 ([13]; Table 6, biochemical FXa-assay, 0.05 nM FXa, 0.6 nM rivaroxaban, read-out: EC50): < 10 nM | EC50 ([13]; read-out: EC50 for the reversal of rivaroxaban induced FXa inhibition, FXa 0.05 nM, rivaroxaban 0.6 nM (IC75), progress curves 50 min): 6 nM
B1: M18-G08-G-DKTHT: non-tagged Fab of variant M18-G08-G; HC SEQ ID NO: 489, LC SEQ ID NO: 490 (antibody, listed as Homo Sapiens)
heavy: EVQLLESGGGLVQPGGSLRLSCAASGFTFSSYWMSWVRQAPGKGLEWVSSISSSSSYIYYADSVKGRFTISRDNSKNTLYLQMNSLRAEDTAVYYCARVWRNYLDYWGQGTLVTVSSASTKGPSVFPLAPSSKSTSGGTAALGCLVKDYFPEPVTVSWNSGALTSGVHTFPAVLQSSGLYSLSSVVTVPSSSLGTQTYICNVNHKPSNTKVDKKVEPKSCDKTHT
light: QSVLTQPPSASGTPGQRVTISCSGSSSNIGSNTVNWYQQLPGTAPKLLIYSNNQRPSGVPDRFSGSKSGTSASLAITGLQAEDEADYYCQSYDSSLSGWVFGGGTKLTVLGQPKAAPSVTLFPPSSEELQANKATLVCLISDFYPGAVTVAWKADSSPVKAGVETTTPSKQSNNKYAASSYLSLTPEQWKSHRSYSCQVTHEGSTVEKTVAPTECS
cumulative tail bleeding time prolonged by rivaroxaban ([4]; anesthetized rats, rivaroxaban 1 mg/kg i.v., Fab 107.5 mg/kg): significantly shortens the bleeding time prolonged by rivaroxaban to almost normal values | Median bleeding time ([4]; rivaroxaban 1 mg/kg i.v. plus Fab 107.5 mg/kg 10 minute infusion): 368 s | effect of Fab itself on thrombin generation in human plasma (thrombin generation): do not modify the thrombogram; also recorded: no effect on thrombin generation | influence on anticoagulative effect of apixaban in thrombin generation (apixaban): does not influence the anticoagulative effect of apixaban | influence on anticoagulative effect of apixaban in thrombin generation (apixaban; listed as Fab antidote): No effect on thrombin generation was detectable | reversal of effect of rivaroxaban on prothrombin time ([7]; 0.4 and 0.8 μM rivaroxaban): potently reverse the inhibitory effect of rivaroxaban on PT | IC50 ([7]; read-out: IC50 M18-G08-G-DKTHT, rivaroxaban 0.4 μM, half-maximal normalization of PT prolongation, mean ± sem, 5 experiments): 140 ± 30 nM | IC50 ([7]; read-out: IC50 M18-G08-G-DKTHT, rivaroxaban 0.8 μM, half-maximal normalization of PT prolongation, mean ± sem, 5 experiments): 340 ± 170 nM | PT in rat plasma ex vivo [9]: rapid and sustained normalization of PT values | reversal of effect of rivaroxaban on prothrombin time ([10]; 0.17 and 0.33 μM rivaroxaban): potently reverse the inhibitory effect of rivaroxaban on PT | IC50 ([10]; read-out: IC50 M18-G08-G-DKTHT, rivaroxaban 0.17 μM, half-maximal normalization of PT prolongation, mean ± sem, 5 experiments): 70 ± 10 nM | IC50 ([10]; read-out: IC50 M18-G08-G-DKTHT, rivaroxaban 0.33 μM, half-maximal normalization of PT prolongation, mean ± sem, 5 experiments): 90 ± 20 nM | reversal of inhibitory effect of rivaroxaban on FXa activity in human plasma [12]: potently reverse the inhibitory effect of rivaroxaban on FXa | influence on anticoagulative effect of dabigatran in thrombin generation (dabigatran): does not influence the anticoagulative effect of dabigatran | influence on anticoagulative effect of dabigatran in thrombin generation (dabigatran; listed as Fab antidote): No effect on thrombin generation was detectable | effect of SATI on thrombin generation in human plasma (SATI): concentration-dependently neutralizes; also recorded: neutralizes concentration-dependently | effect of rivaroxaban on thrombin generation in human plasma (rivaroxaban): concentration-dependently neutralizes; also recorded: neutralizes concentration-dependently
